Test results as given in the supplement of paper PMC4166925.
± gives the standard deviation of the averaged measurements. Whole data set: some 33,000 sequences, median “E-score (dimensionless, -0.5 to 0.5)” near -0.049, cut for the highest 2% near 0.37. This is one part of the list.

System: T1, PmTbr T-box DNA-binding domain (GST fusion)
T1 sequence: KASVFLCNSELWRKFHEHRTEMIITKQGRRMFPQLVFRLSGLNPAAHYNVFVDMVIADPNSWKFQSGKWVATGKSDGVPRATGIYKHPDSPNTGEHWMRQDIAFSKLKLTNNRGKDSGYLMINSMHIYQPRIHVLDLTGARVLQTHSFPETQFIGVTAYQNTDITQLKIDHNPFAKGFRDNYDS
Assay: PBM E-score of 8-mer (E-score (dimensionless, -0.5 to 0.5)); Tbr is Tbrain of the sea star Patiria miniata (Pm) or the sea urchin Strongylocentrotus purpuratus (Sp); higher = stronger binding preference; most listed sequences are background and not binding sites
Conditions: the construct has about 5 more residues each side
Description: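 Universal protein-binding microarray (Agilent AMADID 016060, 60-bp probes with a 35-bp variable region) incubated with 200 nM GST-fused Patiria miniata Tbr T-box DNA-binding domain (residues 272-466) in PBS pH 7.5. Scored for every ungapped 8-mer (given with its reverse complement) by the Universal PBM Analysis Suite as E-score (modified Wilcoxon-Mann-Whitney enrichment, range -0.5 to 0.5; >0.45 counts as bound) and Z-score of median probe intensity. Two replicate arrays (datasets 1 and 2).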
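Also: 200 nM protein in PBS on universal arrays averaged over duplicate arrays.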

Row | Sequence | PBM E-score of 8-mer
1 | ACTCAATA | 0.0101 ± 0.025
2 | GAATCGAA | 0.0477 ± 0.036
3 | CATGTACG | -0.00938 ± 0.079
4 | GCAATAAC | -0.0092 ± 0.029
5 | GACCGACA | 0.13 ± 0.056
6 | GCTTTATA | 0.0425 ± 0.073
7 | AATAGGAC | -0.359 ± 0.027
8 | AATCGTAC | -0.11 ± 0.0033
9 | ATAGTATA | 0.0331 ± 0.027
10 | CAGCGTTC | 0.137 ± 0.014
11 | AATGTATA | -0.208 ± 0.016
12 | GCATGGAA | -0.235 ± 0.023
13 | ACTGGACA | -0.0215 ± 0.0079
14 | ACTACTCT | -0.247 ± 0.0034
15 | GACCGAGC | -0.202 ± 0.0072
16 | ACGTGACA | 0.385 ± 0.023
17 | AGAAACCT | -0.13 ± 0.074
18 | ACACCGAA | 0.182 ± 0.02
19 | AGCGTCTA | 0.00302 ± 0.018
20 | GTCCGTCA | 0.107 ± 0.035
21 | TACAACTA | -0.185 ± 0.0033
22 | AGCAGCAC | 0.116 ± 0.039
23 | ATGAAACA | -0.0732 ± 0.037
24 | CTGTCGTC | 0.0769 ± 0.0034
25 | AGGGGTCG | -0.0869 ± 0.049

Row | Sequence | PBM E-score of 8-mer
26 | CTGCTGAA | -0.067 ± 0.047
27 | GACCAGCC | -0.166 ± 0.018
28 | AACACTAT | 0.311 ± 0.006
29 | AGTGTCAC | 0.449 ± 0.0029
30 | CCGTGCAA | -0.0287 ± 0.039
31 | AGAGTAAG | 0.0807 ± 0.056
32 | GGATGACC | 0.0868 ± 0.033
33 | TGAGACAA | 0.156 ± 0.019
34 | AAGGCACT | -0.152 ± 0.041
35 | ATGCGGTG | -0.168 ± 0.046
36 | GAACCATA | -0.122 ± 0.05
37 | CCTTGAAA | -0.0493 ± 0.0057
38 | ATAAGCAA | -0.134 ± 0.049
39 | TGAGTACA | 0.0931 ± 0.048
40 | CCCTATGA | -0.0526 ± 0.069
41 | CCATTGCG | -0.199 ± 0.051
42 | TCATTGGA | -0.0232 ± 0.16
43 | CTCATTAA | -0.0984 ± 0.091
44 | TGATGAAA | 0.189 ± 0.019
45 | GCAGGAAA | 0.00734 ± 0.033
46 | CGAAGAAC | -0.251 ± 0.036
47 | AATTAGTA | -0.0115 ± 0.032
48 | AGTCTCTA | -0.132 ± 0.041
49 | CCGGTAGC | 0.0411 ± 0.022
50 | CTCAGTTA | -0.0825 ± 0.037

Row | Sequence | PBM E-score of 8-mer
51 | CTCTCTCC | -0.0299 ± 0.026
52 | GTGCGAGA | 0.43391 ± 0.00018
53 | CGGTCGAG | -0.16 ± 0.075
54 | CTCCCTGC | -0.156 ± 0.12
55 | ATTGCACG | 0.152 ± 0.033
56 | GAGGACGA | -0.184 ± 0.027
57 | CGGTATCA | 0.15 ± 0.072
58 | CCAACGGG | -0.0192 ± 0.018
59 | AGAACATG | -0.102 ± 0.0022
60 | GACGTCCC | -0.307 ± 0.057
61 | AGGTCGGA | -0.213 ± 0.0032
62 | CATGTATC | 0.00834 ± 0.075
63 | TGCTTAAA | -0.266 ± 0.041
64 | GCCCTTCA | -0.138 ± 0.043
65 | TAAACCAA | -0.0372 ± 0.02
66 | ATTTACTC | -0.13 ± 0.03
67 | AGCGTAAT | -0.168 ± 0.0079
68 | CGGCTGCC | -0.0529 ± 0.09
69 | TCCAGTCA | -0.0299 ± 0.039
70 | GATTTAGC | 0.188 ± 0.043
71 | AGGATGTG | 0.164 ± 0.0024
72 | ACGGGCCG | -0.156 ± 0.091
73 | ATAGACAT | -0.284 ± 0.024
74 | CTTCGGCC | -0.134 ± 0.017
75 | GCATGACA | 0.146 ± 0.0081

Row | Sequence | PBM E-score of 8-mer
76 | GGAGACCC | -0.298 ± 0.01
77 | GATTGCCA | 0.142 ± 0.011
78 | CTGCGTTA | -0.0447 ± 0.012
79 | AACCAAAT | -0.134 ± 0.016
80 | ATCCACAG | -0.0977 ± 0.018
81 | ATTATGAG | -0.0373 ± 0.02
82 | AGTCTTCA | 0.035 ± 0.045
83 | AGTAGGGG | -0.12 ± 0.0044
84 | AACGAGGC | -0.0368 ± 0.017
85 | AAAGTTGT | 0.166 ± 0.096
86 | GAGCAACC | -0.171 ± 0.01
87 | GGCTGTGA | 0.235 ± 0.016
88 | CGAACGGC | 0.0442 ± 0.1
89 | ATTAGACG | -0.105 ± 0.028
90 | ATTGAATA | -0.139 ± 0.075
91 | CACTAGGG | -0.15 ± 0.031
92 | GGACACAC | 0.101 ± 0.0014
93 | AGTACAAC | 0.0251 ± 0.019
94 | ACTCAGGG | 0.0432 ± 0.005
95 | CGAGCGCG | 0.181 ± 0.04
96 | CCTAGTTC | -0.072 ± 0.0041
97 | CAATGCGG | -0.152 ± 0.0081
98 | AAGTATAG | -0.00462 ± 0.026
99 | AGCTACCT | -0.25 ± 0.061
100 | TCTGGGAA | -0.158 ± 0.069

Row | Sequence | PBM E-score of 8-mer
101 | ACTCGTCG | -0.0593 ± 0.073
102 | TATTTTCA | 0.0531 ± 0.06
103 | ATTGCGAG | 0.216 ± 0.031
104 | AATCGACA | 0.209 ± 0.027
105 | CACACCAA | 0.3718 ± 0.0018
106 | GCCACCAA | 0.207 ± 0.077
107 | ATGTCATA | -0.187 ± 0.0068
108 | CTGCTCCA | -0.253 ± 0.015
109 | AGCTTTTG | -0.164 ± 0.032
110 | TCGTCGAA | 0.141 ± 0.047
111 | GTTCTAGA | -0.2295 ± 0.0017
112 | GAGTCTTA | 0.00905 ± 0.018
113 | GGTCTCCA | -0.151 ± 0.089
114 | AATTACGA | -0.0334 ± 0.0093
115 | CCTTGACG | 0.0453 ± 0.057
116 | AGCCGCGC | 0.00138 ± 0.12
117 | AGAGCGTG | 0.0942 ± 0.066
118 | CCATGACC | -0.318 ± 0.061
119 | CTTATCTA | -0.106 ± 0.036
120 | ATGCGAAA | 0.145 ± 0.041
121 | CACAAGGG | 0.0585 ± 0.042
122 | AGGTGGCC | 0.0319 ± 0.077
123 | ATAAGTAG | 0.149 ± 0.0065
124 | AGTGGGAC | -0.0181 ± 0.026
125 | ACACAGGT | 0.0898 ± 0.0077

Row | Sequence | PBM E-score of 8-mer
126 | AATGAAGA | -0.105 ± 0.049
127 | CCTTCCAG | -0.17 ± 0.067
128 | GGCCCGCA | -0.119 ± 0.05
129 | AGATGCCA | -0.00611 ± 0.051
130 | AGAGGTAA | -0.114 ± 0.044
131 | GATCCGAA | -0.203 ± 0.0092
132 | TATGATCA | -0.0874 ± 0.091
133 | ATGGAACA | -0.123 ± 0.0083
134 | AGGGAAAC | -0.179 ± 0.016
135 | CGTTAAAC | 0.178 ± 0.033
136 | CACTAAAA | 0.0757 ± 0.1
137 | CCCTTAGC | 0.0471 ± 0.014
138 | AGGATCTA | -0.242 ± 0.082
139 | GGAAAAGA | -0.115 ± 0.022
140 | ATTACGGA | -0.278 ± 0.027
141 | GGCCGCAC | 0.0673 ± 0.068
142 | AATCCCGT | -0.198 ± 0.019
143 | GATGTAAA | -0.196 ± 0.047
144 | TCGTAACA | 0.214 ± 0.0074
145 | GCCGCGCA | 0.0422 ± 0.067
146 | ACTCAGGA | -0.0903 ± 0.091
147 | AAAACGTG | 0.247 ± 0.069
148 | AAGATCGG | -0.0806 ± 0.13
149 | GCGGTAAC | -0.0299 ± 0.029
150 | CTCCTTGC | -0.127 ± 0.067

Row | Sequence | PBM E-score of 8-mer
151 | GGCCGAAA | -0.125 ± 0.052
152 | AACGAAGA | -0.0342 ± 0.055
153 | AAACGGTC | -0.215 ± 0.024
154 | CCTATGGC | 0.137 ± 0.0037
155 | AGAATGGG | -0.105 ± 0.073
156 | GGCAGTGA | -0.0177 ± 0.003
157 | ACTTTCGA | 0.092 ± 0.015
158 | GCGTACGC | -0.271 ± 0.032
159 | AAAAGTTA | 0.0746 ± 0.034
160 | AATCGGCA | 0.105 ± 0.029
161 | CAAAAGAG | -0.0129 ± 0.01
162 | CTCACTGA | -0.0614 ± 0.026
163 | GGGCAGAC | -0.229 ± 0.048
164 | CACCGGCC | -0.137 ± 0.013
165 | CGATGGAC | -0.128 ± 0.039
166 | AATTCAAC | -0.0495 ± 0.094
167 | GACTACGC | -0.0623 ± 0.012
168 | ACTATCCG | 0.0513 ± 0.055
169 | CTCCGGAA | -0.0906 ± 0.002
170 | ATATTTGG | -0.0658 ± 0.0069
171 | CCTACAGG | -0.00713 ± 0.024
172 | TCTTTCCA | -0.15 ± 0.0024
